About 60 (0.1%) of roughly 46,000 compounds were called active. Another 3% or so got no clear call; they are omitted. The call rests on the fitted dose curve; in most records, active means well fitted inhibition curve with a large enough effect; inconclusive means small, poorly fitted or top-dose-only effect; inactive means no such curve, though single readings can be large or run the other way. Some of the results follow.
assay: Primary qHTS assay for Inhibitors of ovarian cancer metastasis using an organotypic tumor microenvironment (TME) model.; further: nearly all actives have a fitted effect of over 65% in size;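 on activity change, negative = inhibition: plate controls were DMSO wells for no effect and tomatine positive control wells for full effect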; conditions: SKOV3ip1-GFP adhesion/invasion on 3D omental model, fluorescence; series mostly up to 45.8 µM; activity change, negative = inhibition: at the top concentration
Summary of the method: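 Primary human omental fibroblast/mesothelial 3D culture pre-formed 48 h. SKOV3ip1-GFP cells added with compounds (0.36-46 umol/L), incubated 2 h RT/16 h 37 C, fixed; GFP cells quantified at 488/509 nm.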

Activity change, negative = inhibition, inactive:
O=C(NC1CCCC1)c1ccc(CSc2nc3cccnc3n2Cc2ccccc2)cc1 4.39%
COC(=O)c1ccc(NC(=O)NC(C)c2c(-n3cccc3)sc(C)c2C)cc1 (stereo not given) -18.4%
CCCNC(=O)C1CCC(Cn2c(=O)c3sccc3n(CC(=O)N3CCCC3)c2=O)CC1 (stereo not given) -2.53%
O=C(COc1ccc(Cl)cc1)Nc1ccc(-c2nc3cc(Cl)ccc3o2)c(O)c1 1.6%
Cc1c(C(=O)Nc2cccc(C#N)c2)sc2nc3n(c(=O)c12)CCCCC3 -5.56%
CCc1ccc(S(=O)(=O)c2nnn3c2nc(N2CCC(C(N)=O)CC2)c2cc(Cl)ccc23)cc1 0.0792%
CCCNC(=O)CN1C(=O)c2c(c3ccccc3n2C)C1c1ccc(OC)cc1 (stereo not given) -8.01%
COc1ccc(CNC(=O)c2cc3oc4ccccc4c3n2C)cc1OC 10.5%
Cc1cccc(N(C)c2nc3ccc(C)cc3n3cnnc23)c1 11.8%
CCCCOc1ccccc1C(=O)Nc1nonc1-c1ccccc1 1.63%
CC(C)CC(=O)NCC1(N(C)C)CCCCC1 -10.3%
COc1ccc(CNC(=O)C(C)N2Cc3ccccc3C2=O)cc1 (stereo not given) 2.58%
CCn1ccc2cc(S(=O)(=O)N3CCCN(C(=O)Nc4ccc(C)c(F)c4)CC3)ccc21 -1.6%
CC(C)(C)NC(=O)Nc1cccc(Nc2ncc(F)c(NC(C)(C)CO)n2)c1 -2.68%
CCOc1ccc(NC(=O)c2cc3c(s2)-c2ccccc2OC3)cc1 -4.96%
Cc1cccc(NC(=O)C(Cc2ccccc2)n2cccc2)c1C (stereo not given) -0.933%
COc1cc(OC)c(NC(=O)N2CCc3c(sc4c3CCCC4)C2c2ccccc2)cc1Cl (stereo not given) 1.6%
O=C(Nc1nnc(S(=O)(=O)N2CCCCCC2)s1)c1ccccc1Cl 4.71%
Cc1ccc(CNC(=O)CCCN2C(=O)c3cccnc3Oc3ccc(Cl)cc32)cc1 2.63%
FC(F)(F)c1cccc(-c2nnn3c2nc(NC2CCCCC2)c2ccccc23)c1 10.9%
COc1ccccc1CCNC(=O)Cc1c(C)c2c(cc(C)c3c(C)c(C)oc32)oc1=O 8.65%
CCC(C)NC(=O)C1CCN(C(=O)c2ccc(-n3ccc4ccccc43)s2)CC1 (stereo not given) -2.05%
CCOC(=O)c1ccc(NC(=O)CSc2nccn2-c2ccc(OCC)cc2)cc1 -3.38%
COc1ccccc1N1CCN(c2ccc(-c3nc(-c4ccccc4C)no3)cc2[N+](=O)[O-])CC1 0.205%
CCOc1ccc(CCNC(=O)c2cc(=O)[nH]c3ccc(S(=O)(=O)N4CCCCC4)cc23)cc1OCC -5.73%
COc1ccc(NC(=O)C(C)n2nnc3sc(-c4ccccc4)cc3c2=O)cc1Cl (stereo not given) -19.1%
COc1cc([N+](=O)[O-])ccc1NC(=O)N1CCN(c2cc(-c3noc(C)n3)ccc2C)CC1 -4.66%
S=P(N1CC1)(N1CC1)N1CC1 -6.08%
O=C(Cc1ccc(F)cc1)NCc1nc2cccnc2n1Cc1ccc(F)cc1 19.3%
FC(F)(F)c1cccc(N2CCN(Cc3nnc(-c4ccc5c(c4)OCO5)o3)CC2)c1 -11.1%
COc1cccc(-c2nc(SCC(=O)NCC3CCCO3)c(-c3ccc(F)cc3)[nH]2)c1 (stereo not given) -2.86%
CCOC(=O)c1cccc(NC(=O)N2CC(CC)Sc3ccccc32)c1 (stereo not given) -1.93%
CCCc1cc(=O)oc2cc(C)c3c(-c4cccc(OC)c4)coc3c12 -5.46%
NS(=O)(=O)c1ccc(CCNC(=O)c2ccc3nc(Cc4ccccc4)oc3c2)cc1 -3.8%
CC1CCCN(Cc2nc3c(c(=O)n(C)c(=O)n3C)n2Cc2ccc(Cl)cc2Cl)C1 (stereo not given) 10.6%
COc1ccc(CCNC(=O)C2CCN(c3ncnc4c3nc3n4CCCCC3)CC2)c(OC)c1 15.7%
CCOc1ccc(S(=O)(=O)c2c[nH]c3ccccc3c2=O)cc1 -32.7%
Cc1cc(C)cc(-n2nnc(-c3nsc(NC(=O)c4ccccc4Cl)n3)c2C)c1 3.89%
COc1cccc(CNC(=O)c2ccc(-c3nc(CS(=O)(=O)c4ccccc4)c(C)o3)cc2)c1 4.68%
O=C(Nc1cc(Cl)cc2c1[nH]c1cnccc12)c1cccnc1 -0.732%
COC(=O)c1ccc2c(=O)n(CCCCCC(=O)N3CCN(c4cc(Cl)ccc4C)CC3)c(=O)[nH]c2c1 -24.3%
CCC1CCCCN1C(=O)CSc1n[nH]c(-c2ccccc2Cl)n1 (stereo not given) 2.96%
COc1ccc(CCNC(=O)c2cnc3sc(N4CCC(C)CC4)nn3c2=O)cc1OC 13.5%
CC(=O)Nc1ccc(S(=O)(=O)NCc2ccc(C(=O)NCc3ccc(Cl)cc3)cc2)cc1 4.95%
O=C(Nc1ccc(C(F)(F)F)cc1)C1CCCN(S(=O)(=O)c2cccc3cccnc23)C1 (stereo not given) -14.3%
COC(=O)c1cc2sccc2n1Cc1nc(-c2cccc(Br)c2)oc1C 11%
O=C(Nc1cccc(C(=O)N2CCN(c3ccccc3F)CC2)c1)c1nsc2ccccc12 4.7%
CCCCCCc1cc2cc(-c3nnc(-c4ccc(C)cc4)o3)c(=O)oc2cc1O 4.79%
O=C(NCc1cccnc1)C(=O)NCC(c1cccnc1)N1CCN(c2ccccc2)CC1 (stereo not given) 1.37%
CCc1ccc(NC(=O)CSc2nc(C)cc(COC)c2C#N)cc1 0.728%
CCc1ccc(-n2nc(C)c3c(C)cc(=O)n(CC(=O)NCc4ccc(C)cc4)c32)cc1 16.9%
COc1ccc2cc(C(=O)NCc3ccc4c(c3)CCN4C(=O)c3ccc(C)cc3)[nH]c2c1 -2.1%
CCOc1ccc2nc(N3CCCC(C(=O)NCc4ccccc4Cl)C3)sc2c1 (stereo not given) -26.5%
C=Cc1ccc(Cn2c(=O)n(-c3ccc(C)cc3)c(=O)c3c2c2cc(OC)ccc2n3C)cc1 24.2%
Cc1ccc2c(c1)c(=O)c(C(=O)c1ccncc1)cn2CC(=O)Nc1ccccc1Cl -6.85%
CCc1ccc(C2=CC(c3cccc(Br)c3)n3nnnc3N2)cc1 (stereo not given) -8.02%
CC(C)C(=O)Nc1cccc(NC2=NS(=O)(=O)c3ccccc32)c1 21.1%
Cc1ccc(C)c(N2CCN(c3nc4ccccc4c4nc(-c5cccnc5)nn34)CC2)c1 6.37%
CC(=O)Nc1nnc(SCc2cc(=O)c3cccc(C)c3[nH]2)s1 -10.5%
CC1=C(C(=O)Nc2ccc(C)cc2C)C(c2cccn2C)n2ncnc2N1 (stereo not given) -18.8%
CNC(=O)CN1CCC(Oc2cc3c(Nc4cccc(Cl)c4F)ncnc3cc2OC)CC1 -20.6%
COc1ccc(NC(=O)CSc2nc(O)c(C/C=C/c3ccccc3)c(=O)[nH]2)cc1 -4.39%
Cc1ccc(CNC(=O)C2CCCN(c3nnc(-n4c(C)ccc4C)s3)C2)cc1 (stereo not given) 0.146%
CCc1ccc(NC(=O)Cn2c(=O)oc3cc(S(=O)(=O)NCc4ccccc4)ccc32)cc1 -2.66%
CCCS(=O)(=O)Nc1ccc(F)c(C(=O)c2c[nH]c3ncc(Cl)cc23)c1F -9.38%
COc1ccccc1CNC(=O)CCC1N=C2c3ccccc3N=C(SCc3ccccc3Cl)N2C1=O (stereo not given) -3.5%
CCSc1nc(-c2ccc(Cl)cc2)nc2c1Cc1c(CO)cnc(C)c1O2 4.4%
CCOC(=O)c1sc2ccccc2c1S(=O)(=O)NCc1ccc(F)cc1 3.29%
COc1ccc(-c2cc(C(F)(F)F)n3nc(C(=O)Nc4cccc(C(F)(F)F)c4)c(Br)c3n2)cc1 -5.46%

outcome, inactive:
CCc1cccc(C)c1NC(=O)CN1C(=O)c2ccccc2Sc2ncccc21
COC(=O)c1sc2cccc(F)c2c1S(=O)(=O)Nc1cc(C)c(Cl)cc1OC
CCCc1ccc(OCC(=O)Nc2sc3c(c2C(=O)OC)CCCCC3)cc1
Cc1nc(-c2ccccc2)sc1CCNC(=O)C(=O)Nc1ccc2c(c1)OCCO2
Cc1cccc(N2CCN(C(=O)Cn3cnc4sc(C)c(S(=O)(=O)N5CCN(c6ncccn6)CC5)c4c3=O)CC2C)c1 (stereo not given)
COc1ccccc1Cc1nc2ccccc2nc1SCC(=O)N1CCc2ccccc21
Cc1cccc(-c2nc(CSCC(=O)N3CCN(c4ccccc4)CC3)c(C)o2)c1
COc1cccc(NC(=O)C(=O)NCCc2csc(-c3ccc(C(F)(F)F)cc3)n2)c1
CCOc1ccccc1CNC(=O)C1CCN(S(=O)(=O)c2c(C)noc2/C=C/c2ccc(C)cc2)CC1
CCOC(=O)c1cccc(NC(=O)N2CCC(CN3CCc4ccccc4C3)CC2)c1
Cc1ccccc1OCC(=O)Nc1ccc(OCc2cc(=O)n3ccsc3n2)cc1
CC(C)(C)C1CCc2c(sc(NC(=O)CCC(=O)O)c2C(=O)Nc2ccccc2C(F)(F)F)C1 (stereo not given)
Cc1ccccc1C(=O)Nc1ccc2nc(Nc3cccc(C(F)(F)F)c3)cc(C)c2c1
CCc1ccc(NC(=O)Cn2ncc3c(C)n(Cc4cccc(Cl)c4)c(C)c3c2=O)cc1
CN(C)CCNC(=O)CN1C(=O)CCn2nc(-c3cn(C)c4ccccc34)cc21
CCN(c1ccc(OC)cc1)S(=O)(=O)c1nnc(NC(=O)c2ccccc2C)s1
CCc1cc2c(cc3c(=O)n(CC(=O)N4CCN(c5cc(Cl)ccc5C)CC4)nc(CC)n32)s1
CC(C)CCNc1nc2c(S(=O)(=O)c3ccc(Br)cc3)nnn2c2ccsc12
CCOc1ccc(NC(=O)Cn2c(=O)n(CC3CCCO3)c(=O)c3ccccc32)cc1 (stereo not given)
O=C(NCc1ccccc1)C1CCN(C(=O)c2cnn(-c3ccccc3)c2-n2cccc2)CC1
CCOC(=O)c1cccc(NC(c2nnc(-c3ccccc3)o2)c2ccccc2F)c1 (stereo not given)
COc1ccc(CCNC(=O)CCCCCn2c(=O)[nH]c3cc(OC)c(OC)cc3c2=O)cc1OC
Cc1ccc(C)c(Cn2c(C)c(CNCc3ccc(F)cc3)c(C(=O)O)c2C)c1
CC1=C(c2ccc(Cl)cc2)S(=O)(=O)N=C1N1CCN(c2cccc(C(F)(F)F)c2)CC1
COC(=O)c1cnc(N2CCN(c3ccccc3OC)CC2)c2ccccc12
CCOC(=O)c1ccc(NC(=O)CCn2cnnn2)cc1
